27 variants from the RNAGym collection of RNA variant scans (doi:10.1101/gad.245936.114) can be followed below.

This sample is rich in variants without activity.

First the molecules themselves.
B1: tRNA (parent)
chain: CUCUCGGUAGCCAAGUUGGUUUAAGGCGCAAGACUUUAAUUUAUCACUACGAAAUCUUGAGAUCGGGCGUUCGACUCGCCCCCGGGAGAUUUUUUCCUCGAGCAA

The data set covers variants of B1. Nature of the data set: nonsense suppression (GFP-seq) (ratio to wild type); higher = more function; SUP4oc tRNA, yeast GFP reporter sort-seq. The method, boiled down:
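Nonsense suppression (GFPSEQ) is the median GFP/RFP ratio of each sorting bin, weighted by the variant's estimated share of cells in that bin and expressed relative to the unmutated parent tRNA. Yeast strains carried genome-integrated variants of an ochre-suppressor tRNA from a library with ~3% random mutations, plus a galactose-driven GFP ochre reporter and RFP, and were grown in raffinose/galactose medium containing 80 mg/L adenine. Cells were sorted into GFP/RFP bins, each bin was Illumina-sequenced (phred ≥30), and variants were kept only with ≥100 reads and ≥30 cells.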
For CUCUCGGUAGCCAAGUUGGUUUAUGGCGCAAGUCUUUAAUUUAUCACUACGAAAUCUUGAGAUCGGGCGUUCGACUCGCCCCCGGGAGAUUUUUUCCUCGAGCAA [A24U A33U], the nonsense suppression is at most 0.026. As for CUCUCGGUACCCAAGUUGGUUUAAGGCGCAAGACUUUAAUUUAUCACUACGAAAUCUUGAGACCGGGCGUUCGACUCGCCCCCGGUGGAUUUUUUCCUCGAGCAA [G10C U63C G86U A87G], the figure is at most 0.026; as for CUCUCGGUUGCCAAGUUGGUUUAAGGCGCAAGACUUUAAUUUAUCACUACGAAAUCUUGAGUUCGGGCGUUCGACUCGACCCCGGGAUAUUUUUUCCUCGAGCAA [A9U A62U C79A G88U], at most 0.026. Regarding CACUCGGUAGCCAGGUUCGUUUAAGGCGGAAGACUUUAAUUUAUCACUACGAAAUCUUGAGAACGGGCGUUCGACUCGCCCCCGGGAGAUUUUUUCCUCGAGCAA [U2A A14G G18C C29G U63A], the nonsense suppression was at most 0.026. As to CUCUCGGUAGUCAAGUUGGUUUAAGGCGCAAGACUUUAAUUUAUCACUACGAAAUCUUGAGAUCGGGCGUUCGACUCGCCCCCGCGGGAUUUUUUCCUCGAGCAA [C11U G85C A87G], the nonsense suppression was at most 0.026. As for CUCUCGUUAGCCAAGUUGGUUUAAGGAGCAAGCCUUUAAUUUAUCACUACGAAAUCUUGAGAUCGGGCGUUCGACUCGCCCCCGGGAGAUUUUUUCCUCGAGCAA [G7U C27A A33C], the figure is at most 0.026; as for CUCUCGGUAGCCAAGUUGGUUUUAGGCGCAAGACUUUAAUUUAUCACUACGAAAUCUUGCGGUCGGGCGUUCGACCCGCCCCCUGGAGAUUUUUUCCUCGAGCAA [A23U A60C A62G U76C G84U], at most 0.026. In the case of CUCUCGGUAGCCAAGUUGGUUUAAGGCGCAAGACUUUAAUUUAUCACUACGAACUCUUGAGAUCGGGCGUUCGACGCGCCCCCGGGAGUUUUUUUCCUCGAGCAA [A54C U76G A89U], the nonsense suppression is at most 0.026. Consider CUCUCGGUAGCCAAGUUGGUUUAAGGCGCAAGACUUUAAUUUAUCACUACGAAAUCUUAAGAUCGGGCGUUCCACUCGCCCCCGGGAGAUUUUUUCCUCGAGCAA [G59A G73C], for which the nonsense suppression is at most 0.026. As to CUCUCGGUAGCCAAGUUGGUUUAAGCCGCAUGACUUUAAUUUAUCACUACGAAAUCUUGAGAUCGGGCGUUCGACUCGCCCCCAGGAGAUUUUUUCCUCGAGCAA [G26C A31U G84A], the nonsense suppression was at most 0.026. As to CGCUCGGUAGCCAAGUUGGUUUAAGGCGCAAGACUUUAAUUUAUCACUACGAAAUCUUGAGACCGGGCGUUCGACUCGCCCCCGGAAGAUUUUUUCCUCGAGCAA [U2G U63C G86A], the nonsense suppression is at most 0.026.

On to CUCUCGGUAGCCAAGUUGGUUUACGGGGUAAGACUUUAAUUUAUCACUACGAAAUCUUGAGCGCGGGCGUUCGACUCGCCCCCGGGAGAUUUUUUCCUCGAGCAA [A24C C27G C29U A62C U63G], for which the nonsense suppression is at most 0.026. Consider CUCUCGGUAGCCAAGUUGGUUUAAGGCGCAAGACUUUAAUUUAUCACUACGAAAUCUUGAGUUCGGGGGUUCGACUCGCCCCCGGGAGAUUUUUUCCUCGAGCAA [A62U C68G], for which the nonsense suppression is at most 0.026.

On to CUCUCGGUAGCCAAGUUGGUUUAAGGCGCAAGACUUUAAUUUAUCACUACGAAAUCUUGAGAUCGGGCGUUCGACUCGGCCCGGGGAGAUUUUUUCCUCGAGCAA [C79G C83G], for which the nonsense suppression is at most 0.026.

As to CUCUGGGUAGCCAAGUUGAUUUAAGGCGCAAGACUUUAAUUUAUCACUACGAACUCUUGAGAUCGGGCGUUCGACUCGCCCCCGGGAGAUUUUUUCCUCGAGCAA [C5G G19A A54C], the nonsense suppression is at most 0.026. On to CUCCCGGUAGCCAAGUUGGUUUAAGGCGCAAGACUUUAAUUUAUCACUACGAAAUCUUGAUAUCGGGCGUUCGACUCGCCCCCGGGAGAUUUUUUCCUCGAGCAA [U4C G61U], for which the nonsense suppression turned out to be 1.02.

As for CUAUCGGUAGCCAGGUUGGUUUAGGGCGCAAGACUUUAAUUUAUCACUACGAAAUCUUGAGACCGGGCGUUCGACUCGCGCCCGGGAGAUUUUUUCCUCGAGCAA [C3A A14G A24G U63C C80G], the nonsense suppression was at most 0.026. Turning to CUCUCAGUAGCCAAGCUGGUUUAAGGCGCAAGACUUUAAUUUAUCACUACGAAAUCUUGAGAUCGGGCGUUCGACUCGCCCCCGGGAGAUUUUUUCCUCGAGCAA [G6A U16C], the nonsense suppression was at most 0.026.

Regarding CUCUCGGUAGCCGAGUUGGUUUAAGGCGCAAGACUUUAAUUUAUCACUACGAAAUCUUCAGAUCGGGCGUUCGACUCGCCCCCGGUAGAUUUUUUCCUCGAGCAA [A13G G59C G86U], the nonsense suppression is at most 0.026. CUCUCGGUAGCCAAAUUGGUUUAAGGCGCAAGUCUUUAAUUUAUCACUACGAAAUCUUGAGAUCGGGCGUUCGACUCGCCCCCGGGAGAUUUUUUCCUCGAGCAA [G15A A33U]: the nonsense suppression is at most 0.026. As for CUCUCGGUAGCCAAGUUGGUUUAAGGCGCAGGACUUUAAUUUAUCACUACGAAACCUUGAGAUCGGGCGUUCGACUCGCCCCCGGGAGAUUUUUUCCUCGAGCAA [A31G U55C], the nonsense suppression is at most 0.026. As for CUCUCGGUAGCCAAGUUGGUUUAAGGCGCAAGACUUUAAUUUAUCACUACGAAAUCUUGAGAUCAGGAGUUCGACUAGCCCCCGGGAGAUUUUUUCCUCGAGCAA [G65A C68A C77A], the figure is at most 0.026.

For CUCUCGGUAGCCAAGUUGGUUUAAGGCGCAAGACGUUAAUUUAUCACUACGAAAUCUUGAUAUCGGGCGUUCGACUCGCCCCCGGGAGAUUUUUUCCUCGAGCAA [U35G G61U], the nonsense suppression was at most 0.026.

Turning to CUCUCGGUAGCCAAGUUGCUUUAAGGCGCAGGACUUUAAUUUAUCACUACGAAAUCUUGAGAUCGUGCGUUCGACUCGCCCCCGGGAGAUUUUUUCCUCGAGCAA [G19C A31G G66U], the nonsense suppression was at most 0.026. For the variant CUCUCGGUAGCCAAGUUGGUUUAAGGCGCAAGGCUUUAAUUUAUCACUACGAAAUCUUGAGCCCGGGCGCUCGACUCGGCCCCGGGAGAUUUUUUCCUCGAGCAA [A33G A62C U63C U70C C79G], the nonsense suppression is at most 0.026. As to CUCUCGGUAGCCAAGUUGGUUUAAGGCGCAAGCCUUUAAUUUAUCACUACGAAAUCUUGAGAUCGGUCGUUCGUCUCGCCCCCGGGAGAUUUUUUCCUCGAGCAA [A33C G67U A74U], the nonsense suppression was at most 0.026.

Consider CUCGCGGUAGCCAAGUUGGUUUAAGGCGCAAGAUUUUAAUUUAUCACUACGAAAUCUUGAGAUCGGGCGUUCGACUCGCCCCCGGGAGAUUUUUUCCUCGAGCAA [U4G C34U], for which the nonsense suppression is at most 0.026.
